Z-score data for 111 compounds are collected here from PubChem BioAssay AID488969 (Vanderbilt High Throughput Screening Facility, 2010).

In all, about 110,000 compounds were measured (“z-score”: median about -0.1, highest 2% from about 2 on). This is one part of the list.

The experiment concerns the target Metabotropic glutamate receptor 8 (Rattus norvegicus) (UniProt P70579). The experiment can be described thus: rat mGluR8 modulators via GIRK flux, primary screen, cell-based, thallium flux, HTS (AID 488969). The note with it: HEK293 rat mGluR8, GIRK (G protein-gated inwardly rectifying potassium channel) thallium flux, FluoZin2; at 10 µM; stronger effect = higher value; submaximal glutamate (EC20) added with thallium.
Chain of UniProt P70579 (P70579 whole entry, looked up): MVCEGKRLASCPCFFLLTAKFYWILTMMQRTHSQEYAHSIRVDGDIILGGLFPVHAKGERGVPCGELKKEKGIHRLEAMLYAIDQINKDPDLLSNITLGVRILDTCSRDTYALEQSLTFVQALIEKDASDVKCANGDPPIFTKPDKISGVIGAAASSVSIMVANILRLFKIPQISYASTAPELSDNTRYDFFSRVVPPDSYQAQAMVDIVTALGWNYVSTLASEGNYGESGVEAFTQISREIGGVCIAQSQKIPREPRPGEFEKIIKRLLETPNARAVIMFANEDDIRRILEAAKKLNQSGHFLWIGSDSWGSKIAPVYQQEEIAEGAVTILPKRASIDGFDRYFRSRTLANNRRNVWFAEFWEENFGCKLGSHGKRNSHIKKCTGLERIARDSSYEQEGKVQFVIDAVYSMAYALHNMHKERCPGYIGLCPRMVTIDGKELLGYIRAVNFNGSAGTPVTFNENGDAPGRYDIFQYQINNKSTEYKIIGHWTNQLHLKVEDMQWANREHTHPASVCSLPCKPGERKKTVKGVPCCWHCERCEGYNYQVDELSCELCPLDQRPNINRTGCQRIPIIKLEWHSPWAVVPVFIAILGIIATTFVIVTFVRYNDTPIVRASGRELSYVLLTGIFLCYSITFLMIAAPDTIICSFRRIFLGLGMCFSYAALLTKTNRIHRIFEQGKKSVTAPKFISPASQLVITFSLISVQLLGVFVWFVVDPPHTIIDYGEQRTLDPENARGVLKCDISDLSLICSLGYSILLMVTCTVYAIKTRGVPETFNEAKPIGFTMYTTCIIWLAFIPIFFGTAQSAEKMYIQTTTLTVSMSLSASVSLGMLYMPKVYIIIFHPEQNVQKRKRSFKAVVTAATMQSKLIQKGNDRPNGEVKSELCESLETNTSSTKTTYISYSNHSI
`c1ccc2oc(-c3ccc4nc[nH]c4c3)nc2c1` displayed a z-score of -0.407.
In turn, `CC(C)C(=O)Nc1ccc2c(c1)nc(CCN1CCN(C)CC1)n2C` yielded a z-score of 1.4.
Then `O=C(O)c1ccc(F)c(S(=O)(=O)Nc2ccccc2Cl)c1`, with -0.11.
The compound `O=C(Nc1cc(C(F)(F)F)ccc1N1CCOCC1)c1ccc[n+]([O-])c1` came in with a z-score of -0.118.
Then `NC(=O)CN1CCCN(S(=O)(=O)c2ccc(Br)cc2)CC1`, with 0.489; and `O=C1CC(c2ccc(S(=O)(=O)NCc3ccncc3)cc2)CN1` (stereo unspecified), with -0.126.
Then `OC(CNCC1CCCO1)Cn1c2ccc(Cl)cc2c2cc(Cl)ccc21` (stereo unspecified), with 0.381; and `CC(CN(C)Cc1ccccc1)OC(=O)c1cccs1` (stereo unspecified), with 0.0355.
Then `COc1ccccc1-c1cc(C(=O)N/N=C/c2sccc2C)c2ccccc2n1`, with 1.65; and `CC(Sc1nc(-c2ccccc2)cs1)C(=O)Nc1ccc(Cl)cn1` (stereo unspecified), with 0.126; and `Cc1csc(-c2cnn(-c3ccccc3)c2NC(=O)c2cccc(F)c2)n1`, with 0.324.
`COC(=O)C1=CN(C)C=C(C(=O)OC)C1c1ccccc1Cl` registered a z-score of -0.0286.
`O=C(CSc1nnc(NC2CCCCC2)s1)NC1CCS(=O)(=O)C1` (stereo unspecified) had a z-score of 1.33.
Then `COc1ccc(NS(=O)(=O)c2cccc3cccnc23)cc1`, with -0.41; and `COc1ccc(N=NC2=C(O)CC(C)(C)CC2=O)c(OC)c1`, with -0.0445; and `Cn1ncc(Br)c1C(=O)N/N=C/c1ccc(OS(=O)(=O)c2ccccc2)cc1`, with -0.215.
With `CC1=C(C(=O)Nc2ccccc2)C(c2cccs2)n2nnnc2N1` (stereo unspecified), the z-score is -0.948.
The compound `Clc1ccc(-n2cccc2/C=N/n2cnnc2)cc1` gave a z-score of -0.373.
Then `COc1cc2c(cc1OC)C1(Nc3c-2c(Cc2ccccc2)nn3-c2ccccc2)C(=O)Nc2ccccc21` (stereo unspecified), with -0.11.
Then `O=C(Nc1nc(-c2ccccc2)cs1)c1ccc(N2CCOCC2)c([N+](=O)[O-])c1`, with -0.0442; and `Fc1ccccc1NC(=S)Nc1ccc(Br)cc1`, with 0.657.
Then `O=c1[nH]c(CSc2nc(-c3ccc(F)cc3)cs2)nc2ccccc12`, with -0.441.
Compound `CCOc1ccc(N2CC(C(=O)NCCC3=CCCCC3)CC2=O)cc1` (stereo unspecified) displayed a z-score of -1.42.
On to `COC(=O)C1=C(O)/C(=C\c2sccc2C)N=C1C`, for which the z-score is -0.319.
`O=C(Cn1c(/C=C/c2ccccc2)nc2ccccc21)Nc1ccc(F)cc1` returned a z-score of -0.464.
Then `CCN(c1ccccc1)S(=O)(=O)c1ccc(Cl)c(C(=O)NCCc2ccc(OC)cc2)c1`, with -0.46.
Then `COc1cc(C(=O)Nc2ccc(Cl)c(C(F)(F)F)c2)cc(OC)c1OC`, with -0.147; and `O=C(O)/C(=C\c1ccc(Br)cc1)c1ccc(S(=O)(=O)N2CCCCC2)s1`, with -0.862.
Then `COc1ccc(-n2c(SCC(=O)NCc3ccco3)nc3c([nH]c4ccccc43)c2=O)cc1`, with 0.0265; and `CCC(=O)Nc1ccc(C(=O)Nc2cccnc2)cc1`, with 0.103; and `c1ccc(CN2CCN(c3nc(NCc4ccco4)c4ccccc4n3)CC2)cc1`, with 1.88.
As to `CCCCNC(=O)c1cc2n(n1)C(C(F)(F)F)CC(c1ccccc1)N2` (stereo unspecified), the z-score was found to be 0.568.
Consider `Cc1ccc(S(=O)(=O)N2CCOCC2)c(C)c1NS(C)(=O)=O`, for which the z-score is -0.124.
Take `CCOc1cc(S(=O)(=O)Nc2ccccc2CC)ccc1Cl`: the z-score amounted to 0.122.
In turn, `O=C1NC(=O)C(CC(=O)N(c2ccccc2)C2(C(=O)NC3CCCC3)CCCCC2)N1` (stereo unspecified) registered a z-score of -0.564.
As to `COc1cc(C)c(C(C)C)cc1S(=O)(=O)n1ccnc1`, the z-score is -0.0729.
The compound `Cc1oc2c(C)c(O)ccc2c(=O)c1N1C(=O)c2ccccc2C1=O` yielded a z-score of -0.166.
`O=[N+]([O-])C1=CC=C2C(=NC3(CCCCC3)N2O)C1=NCCO` returned a z-score of -0.049.
The compound `CC(=O)Oc1ccc(-c2cccc(C(=O)O)c2)cc1` yielded a z-score of -0.607.
As to `O=C(C1CCN(S(=O)(=O)c2ccc3ccccc3c2)CC1)N1CCN(c2ncccn2)CC1`, the z-score was -0.316.
Compound `COc1ccc(CC(=O)NNc2ncnc3c2cnn3-c2ccc(C)cc2)cc1OC` gave a z-score of -0.157.
As to `O=C(CCNS(=O)(=O)c1cccc2nsnc12)N1CCc2ccccc21`, the z-score stood at 0.209.
`O=C(NC1CCCC1)C(c1cccs1)N(Cc1ccco1)C(=O)Cn1nnc(-c2cccs2)n1` (stereo unspecified): the z-score was 0.388.
For `COc1ccc(NC(=O)C2CCCN(S(=O)(=O)c3c(C)[nH]c(=O)[nH]c3=O)C2)cc1` (stereo unspecified) the value was -0.193; for `CNc1ccc(S(=O)(=O)NCC(=O)OCC(=O)Nc2cccc(Cl)c2Cl)cc1[N+](=O)[O-]`, -0.201; for `CC(C)Cc1[nH]c(=O)c(C#N)c2c1COC(C)(C)C2`, 0.0865.
For `O=C(CSc1ncn[nH]1)Nc1ccccc1Sc1ccc(Cl)cc1` the value was -0.254.
Compound `C/C(=N\NC(=S)Nc1ccc(C)c(C)c1)c1ccc(N2CCOCC2)cc1` yielded a z-score of 0.458.
Then `CCC1(C(=O)OC)NC(c2cccc(F)c2)C2C(=O)N(C)C(=O)C21` (stereo unspecified), with -0.0658; and `CCOc1ccc2[nH]c(=O)c(CN(CC3COCCO3)C(=O)C3CC3)cc2c1` (stereo unspecified), with -0.278.
For `Cc1cccc(OCC(O)Cn2c(=N)n(CCN3CCOCC3)c3ccccc32)c1` (stereo unspecified), the z-score worked out at 1.06.
In the case of `c1ccc2c(c1)nc(CN1CCOCC1)n1c3ccccc3nc21`, the z-score came out at 0.336.
As for `Fc1ccc(Oc2nccc(-c3ccc(Cl)cc3)n2)cc1`, the z-score was -0.0536.
Then `CCOC(=O)/C(C#N)=C/c1ccc(OC(=O)c2ccccn2)cc1`, with -0.24; and `O=c1[nH]c2sc3c(c2c(=O)n1Cc1ccccc1)CCC3`, with -0.117; and `O=C(c1cccc(F)c1)N1CCN(c2cccc(C(F)(F)F)c2)CC1`, with 0.657.
Then `Cc1cccc(NC(=O)CSc2nc3ccc(N4C(=O)c5ccccc5C4=O)cc3s2)c1C`, with 0.0104; and `Cc1c(C(=O)O)cccc1-c1ccc(C=O)o1`, with 0.12; and `Cc1cc(COc2ccccc2OCc2cc(C)no2)on1`, with 0.355.
For the compound `CCN(C1CCS(=O)(=O)C1)S(=O)(=O)c1cccs1` (stereo unspecified), the z-score was 0.297.
Then `CCCNC(=S)Nc1ccc(Br)cc1`, with 0.593.
Then `CCCn1c(SCc2ccon2)nc2ccccc2c1=O`, with 0.14.
For `COCCn1c(SCC(=O)NC(=O)NCc2ccccc2)nc2ccccc21` the value was 1.78; for `Oc1ccc(N=Nc2n[nH]c(-c3ccc(Br)cc3)n2)cc1`, 0.0625; for `COC(=O)c1ccc(C)c(NC(=O)Cn2cnc3ccccc3c2=O)c1`, 0.133.
In turn, `COc1ccc(-c2csc(Cc3nnc4n3CCCCC4)n2)cc1` displayed a z-score of 0.205.
In turn, `COCCCNC(=O)c1cc(C)nc2ccc(F)cc12` registered a z-score of -0.192.
With `Cc1ccccc1C(=O)N1CCC(C(=O)Nc2ccc(F)cc2)CC1`, the z-score is 0.221.
Then `CC1C(O)=C(c2nc3ccccc3[nH]2)C(=N)N1c1ccccc1` (stereo unspecified), with -0.532; and `CC1CC(Nc2ccccc2)=CC(=O)O1` (stereo unspecified), with -0.0738.
Take `CCOC(=O)c1ccc(N/C(=N/S(=O)(=O)c2ccccc2)c2ccccc2)cc1`: the z-score was -0.451.
Then `CCCCn1c(NCc2ccc3c(c2)OCO3)nc2ccccc21`, with -1.26; and `OCC1CCCN(c2nc(CN3CCCCC3)nc3scc(-c4ccccc4)c23)C1` (stereo unspecified), with 0.295.
Then `CCCCCC1CCC(c2ccc(C(N)=O)cc2)CC1` (stereo unspecified), with -0.00317; and `COCCCn1c(SCc2cccc(OC)c2)nc2cc(OC)c(OC)cc2c1=N`, with -0.676; and `CCCC(=O)Nc1c(-c2cccs2)c(=O)c2ccccc2n1C`, with -0.175.
On to `CC1=C(C)C(=O)NC(Nc2nc(C)c3cc(C)cc(C)c3n2)N1` (stereo unspecified), for which the z-score was -0.695.
Compound `C=C(C)CSc1nnc([C@@H]2CCCN2C(=O)OC(C)(C)C)o1` returned a z-score of 0.557.
Then `COCCCNC(=O)c1ccc(C(=O)NCCCOC)cc1`, with 0.139.
For `CCOc1ccc(NC(=O)C2=C(C)C(=O)OC23CCC(C)CC3)cc1` (stereo unspecified) the value was 0.156.
For `COc1ccc(C2CC(=O)C3=C(C2)Nc2ccccc2NC3c2coc3ccccc3c2=O)cc1OC` (stereo unspecified) the value was -0.442.
In the case of `O=C(Nc1ccc(OCC(F)(F)C(F)F)c(C(F)(F)F)c1)c1ccccc1O`, the z-score was -0.111.
Compound `Cc1cc2nnc(SC3CCCCN(C(=O)c4ccc(F)cc4)C3=O)n2c2ccccc12` (stereo unspecified) had a z-score of -1.06.
`CCCCOc1ccc(Cl)cc1CSc1nnc(CC)n1N` came in with a z-score of -0.694.
For `O=C(CSCc1nc2ccccc2[nH]1)N1CCN(c2cccc(Cl)c2)CC1` the value was 0.0357; for `CCCC(=O)Nc1nc(-c2ccc3c(c2)CCN3S(C)(=O)=O)cs1`, -0.329; for `Cc1c(C(=O)NCCSCc2ccc(Cl)cc2Cl)cccc1[N+](=O)[O-]`, -0.37.
Compound `CCOCCCNC(=O)c1ccccc1SC` gave a z-score of 0.03.
In turn, `COC(=O)C(C)n1cnc2c(cnn2-c2ccc(Cl)cc2)c1=O` (stereo unspecified) gave a z-score of 0.0795.
Compound `O=C(Cc1nc(=O)c2ccccc2s1)Nc1ccccc1` showed a z-score of -0.368.
Then `CC1CCC(C(=O)NC(C(=O)N2CCc3ccccc3C2)C(C)C)CC1` (stereo unspecified), with -0.269; and `CNC(=S)N/N=C/c1cn(Cc2ccc(F)cc2)c2ccccc12`, with 0.0629; and `COc1ccc(CCCC(=O)NC2CCCCC2C)c(C)c1` (stereo unspecified), with 0.0192.
`Nc1c(Cl)ncnc1N1CCOCC1` gave a z-score of -0.00864.
`CSc1ccccc1NC(=O)CSCc1ccccc1Br` displayed a z-score of -0.153.
Turning to `Cc1cccc2c1CC(C)(C)N=C2C1=C(O)CC(C)(C)CC1=O`, the z-score is 0.717.
For the compound `COc1ccccc1N1CCN(C2=NS(=O)(=O)c3ccccc32)CC1`, the z-score was 0.155.
For `Nc1ccc(SC(F)(F)F)cc1C(=O)c1ccccc1` the value was -0.00154; for `COc1ccc(NC(=O)CN(C)CC(=O)Nc2ccccc2SC)cc1Cl`, -0.43; for `Cc1ccc(S(=O)(=O)Nc2cc(-c3nn(C)c(=O)c4ccccc34)ccc2N2CCOCC2)cc1`, -0.419.
For the compound `CCOC(=O)CSc1nc2c(sc(=S)n2-c2ccccc2OC)c(=O)n1Cc1ccco1`, the z-score was -1.88.
For `O=C(c1ccc(-n2cnnn2)cc1)N1CCOCC1` the value was 0.54; for `CCOc1cccc(NC(=O)Cn2nc(-c3ccc4c(c3)OCCO4)ccc2=O)c1`, -1.19.
Then `CCCN1C(=O)c2cc(C(=O)NC3CCCC3)ccc2C1O` (stereo unspecified), with -0.238.
Then `Clc1ccccc1COc1ccc(/C=N/n2cnnc2)cc1`, with 0.0759.
Regarding `Cc1cccc(C(=O)N2CCN(c3ccccn3)CC2)c1`, the z-score is -0.2.
Then `CCn1c(CNC(=O)COc2ccc(C(C)C)cc2)nnc1SCC(=O)Nc1ccccc1C(C)C`, with -0.367; and `COc1ccc(NS(=O)(=O)c2cccc(NC(=O)C34CCC(CC3)C4)c2)cc1`, with -0.0275; and `Cc1cc(C)nc(NS(=O)(=O)c2ccc(N/C=C3\CCCC3=O)cc2)n1`, with -0.331.
Then `C=CCn1c(=NC(=O)C2CC2)sc2cc(NC(C)=O)ccc21`, with -0.407; and `O=C(c1ccccc1)c1cc2ccc(O)cc2oc1=O`, with -0.849.
